According to PubChem BioAssay AID588855 (National Center for Advancing Translational Sciences (NCATS), 2011):
In all, about 410,000 compounds went through this assay and about 5,000 (1.2%) were called active. Inconclusive means that the source gave no clear call. Such entries were picked first, then a sample of the others. Calls come from the whole dose curve; as a rule, active = well fitted inhibition curve with a large enough effect; inconclusive = small, poorly fitted or top-dose-only effect; inactive = no such curve, though single readings can be large or run the other way. A potency beside an inconclusive call is a rough fit, not a confirmed value.

assay: qHTS for Inhibitors of TGF-b; details: HepG2 CAGA-GFP TGF-b/SMAD3 reporter, GFP fluorescence, 18 h, TGF-beta stimulated, 500 pg/mL final; series mostly up to 46.1 µM; activity, negative = inhibition: at the top concentration; note: nearly all actives have a fitted effect of over 65% in size
Method in brief: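 Cell-based qHTS in HEPG2 carrying a CAGA-GFP Smad reporter; compounds added before 500 pg/mL final TGF-beta, 18 h incubation at 37 degrees C, GFP fluorescence quantified per cell by imaging cytometry.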
% is set by controls: 0 for no effect and ±100 for the full control effect; potency is the fitted concentration of half-maximal effect; tags give direction and shape of the fitted curve.

Row | SMILES | Potency | activity, negative = inhibition
1 | CCc1cc(=O)oc2c3c(cc(OCC(=O)NCc4ccco4)c12)OC(C)(C)CC3 | inconclusive: 6.31 µM [inhibitor, partial curve] | –
2 | O=C(c1ccc(C(F)(F)F)cc1)N1CCN(c2ccc(N3CCOCC3)nn2)CC1 | inconclusive: 20 µM [inhibitor, single point] | –
3 | CCCCC(=O)NC(=S)Nc1cc(C(=O)O)ccc1OC | inconclusive: 15.8 µM [inhibitor, single point] | –
4 | Cc1nc(C)c(C(=O)NCc2ccccc2Cl)o1 | inconclusive: 35.5 µM [inhibitor, single point] | –
5 | CCC(=O)N1CCc2cc(S(=O)(=O)NC(Cc3ccccc3)C(=O)NCc3ccccc3)ccc21 (centres undefined) | inconclusive: 0.447 µM [inhibitor, full curve] | –
6 | CCOC(=O)c1sc(=S)n(-c2ccccc2OC)c1N | – | inactive: -18.8%
7 | CSc1nn2c(C(F)(F)F)cc(C(F)(F)F)nc2c1C(=O)O | – | inactive: -9.78%
8 | CCCNC(=O)c1ccc2c(c1)N=C(CCC)c1ccccc1S2 | active: 8.91 µM | –
9 | COc1ccc(-c2nn(-c3ccccc3)cc2C(=O)N(C)CC(=O)Nc2cccc(F)c2)cc1 | inconclusive: 15.8 µM [inhibitor, single point] | –
10 | Cc1ccc(Cl)cc1-n1ncc2c(NCCc3ccccc3)ncnc21 | inconclusive: 35.5 µM [inhibitor, partial curve, poor fit] | –
11 | O=C(Cn1nc2c(cc1=O)CCCC2)NCc1ccc(Cl)cc1 | inconclusive: 35.5 µM [inhibitor, single point] | –
12 | O=C(Cn1ncc2c3ccccc3n(Cc3ccccc3)c2c1=O)NCCc1ccc(Cl)cc1 | inconclusive: 3.55 µM [inhibitor, full curve, poor fit] | –
13 | c1ccc(CSC2=NNC(c3ccccn3)S2)cc1 (centres undefined) | inconclusive: 0.631 µM [inhibitor, full curve, poor fit] | –
14 | CCOc1ccc(N2CC(C(=O)NCCc3c[nH]c4ccc(C)cc34)CC2=O)cc1 (centres undefined) | – | inactive: -2.18%
15 | COc1ccc(COC(=O)C2CCN(S(=O)(=O)c3ccc(OC)c(OC)c3)CC2)cc1 | – | inactive: 14.7%
16 | CCN1CCN(C(=S)c2ccc(-c3ccccc3)cc2)CC1 | – | inactive: -3.77%
17 | CCOC(=O)c1c(-c2ccccc2)csc1NC(=O)CCN1CCOCC1 | – | inactive: 7.67%
18 | CN1CCN(c2ccc(NC(=O)c3cccc(OCc4ccccc4)c3)cc2)CC1 | inconclusive: 35.5 µM [inhibitor, single point] | –
19 | Clc1ccc(C2=Nn3c(nnc3-c3n[nH]c4c3CCC4)SC2)cc1Cl | inconclusive: 35.5 µM [inhibitor, single point] | –
20 | Cc1cc(S(=O)(=O)N2CCOCC2)ccc1OCC(=O)Nc1cccc(F)c1 | inconclusive: 35.5 µM [inhibitor, partial curve, poor fit] | –
21 | C[C@H](O)[C@@H]1CN2CCc3c([nH]c4ccc(-c5ccc6c(c5)OCO6)cc34)[C@@H]2C[C@@H]1N(C)C(=O)NC1CCCCC1 | – | inactive: -23.2%
22 | COC(=O)CNc1nc(Cl)nc(NC2CCCCC2)n1 | – | inactive: -9.2%
23 | Cc1cccc(-c2nc(SCc3cc(=O)c4c(C)cc(C)cc4[nH]3)n[nH]2)c1 | inconclusive: 17.8 µM [inhibitor, partial curve, poor fit] | –

Row | SMILES | Potency | activity, negative = inhibition
24 | CCN(CC)c1nc(C)nc2c1cnn2CCc1ccccc1 | – | inactive: -7.16%
25 | Nc1nc(N(Cc2ccccc2)Cc2ccccc2)nc(C(F)(F)F)n1 | inconclusive: 11.2 µM [inhibitor, partial curve] | –
26 | CCOc1ccc2c(c1)c1nnc(SCC(=O)N3CCC(C)CC3)nc1n2C | inconclusive: 11.2 µM [inhibitor, partial curve, poor fit] | –
27 | CCC1S/C(=N/N=C/c2ccco2)N(Cc2ccc(F)cc2)C1=O (centres undefined) | inconclusive: 35.5 µM [inhibitor, single point] | –
28 | COC(=O)c1cc(C#N)c(OC)nc1C | inconclusive: 35.5 µM [inhibitor, single point] | –
29 | CN(Cc1nc(-c2ccc(Cl)cc2)no1)S(=O)(=O)c1ccccc1 | – | inactive: -5.24%
30 | COc1ccc(C2CC(c3cccc(F)c3)=NN2c2ccc(S(N)(=O)=O)cc2)cc1 (centres undefined) | active: 11.2 µM | –
31 | CCN(CC)CCCNC(CC(=O)Nc1cccc([N+](=O)[O-])c1)C(=O)O (centres undefined) | inconclusive: 5.62 µM [inhibitor, single point] | –
32 | CC(=O)c1ccc(OCC(O)CN2CCN(S(=O)(=O)c3cccc(Br)c3)CC2)cc1 (centres undefined) | inconclusive: 22.4 µM [inhibitor, single point] | –
33 | CC(C)c1ccc(C2CC(=O)Nc3cc4c(cc32)OCCO4)cc1 (centres undefined) | inconclusive: 25.1 µM [inhibitor, single point] | –
34 | COc1ccc(/C=C/C(=O)c2c(O)ccc3c(C)cc(=O)oc23)cc1 | inconclusive: 35.5 µM [inhibitor, single point] | –
35 | CN(C)c1ccc(CNC(=O)C2(C)Cc3c(-c4cccc(C(F)(F)F)c4)ccnc3O2)cc1 (centres undefined) | inconclusive: 17.8 µM [inhibitor, single point] | –
36 | CCOC(=O)N1CCC(NC(=O)c2ccc3c(c2)N(Cc2ccccc2C)C(=O)c2ccccc2S3=O)CC1 (centres undefined) | inconclusive: 3.98 µM [inhibitor, full curve, poor fit] | –
37 | COC(=O)c1c(-c2ccc(C)cc2)csc1NC(=O)Cc1ccc(OC)c(OC)c1 | inconclusive: 5.62 µM [inhibitor, single point] | –
38 | COc1ccc(/C=C2/C(=O)N(c3nc4ccccc4s3)N=C2CSc2ccc(Cl)cc2)cc1 | inconclusive: 35.5 µM [inhibitor, single point] | –
39 | O=C(c1ccccc1)N(Cc1ccccc1)c1ccccn1 | – | inactive: -1.29%
40 | CN1CCN(C(=O)CCCN2C(=O)/C(=C/c3ccc(Cl)cc3)SC2=S)CC1 | inconclusive: 17.8 µM [inhibitor, single point] | –
41 | O=C1c2cccc3cccc(c23)C(=O)N1CCN1CCN(C(=S)Nc2ccccc2)CC1 | – | inactive: -16.6%
42 | CSc1ncnc2c1ncn2CC(=O)C1CCC2C3CCC4=CC(=O)CCC4(C)C3CCC12C (centres undefined) | inconclusive: 11.2 µM [inhibitor, partial curve, poor fit] | –
43 | O=C(OCC(=O)N(c1ccccc1)C1CCCCC1)c1ccc(CO)cc1 | – | inactive: -7.41%
44 | O=C(CSc1nc2ccccc2s1)Nc1ccc(Cl)c(S(=O)(=O)N2CCOCC2)c1 | – | inactive: -2.58%
45 | COc1cc(/C=C2/C(=N)N3C=CSC3=NC2=O)ccc1OCCCOc1c(C)cccc1C | – | inactive: -4.87%
46 | COC(=O)c1ccc(NC(=O)C(=O)N2CCN(C(=S)Nc3cccc(OC)c3)CC2)cc1 | – | inactive: -0.608%

Row | SMILES | Potency | activity, negative = inhibition
47 | O=C1[C@@H]2Cc3c([nH]c4ccccc34)C(c3cccc(Br)c3)N2C(=O)CN1C1CCN(Cc2ccccc2)CC1 (some centres undefined) | active: 15.8 µM | –
48 | O=C(Cc1sc(Nc2ccccc2)nc1-c1ccccc1)NCc1ccccc1 | inconclusive: 35.5 µM [inhibitor, single point] | –
49 | COc1ccc(-c2cc(C(F)(F)F)nc(SCC(=O)N(C)Cc3cn(C)nc3C)n2)cc1OC | – | inactive: -6.44%
50 | Cc1cc(C(=O)N2CCCC(C(=O)c3ccc(Oc4ccccc4)cc3)C2)n[nH]1 (centres undefined) | inconclusive: 35.5 µM [inhibitor, partial curve, poor fit] | –
51 | COc1cc(C2Nc3ccc4ncccc4c3C3=C2C(=O)CCC3)cc(OC)c1O (centres undefined) | – | inactive: -2.15%
52 | O=C(NCC(c1ccco1)N1CCN(c2ccc(F)cc2)CC1)OCc1ccccc1 (centres undefined) | inconclusive: 35.5 µM [inhibitor, single point] | –
53 | O=C(C1CC(=O)N(c2ccc(F)cc2)C1)N1CCC(c2nc3ccccc3[nH]2)CC1 (centres undefined) | – | inactive: -0.0409%
54 | COC(=O)C[C@H]1c2cc(C(F)(F)F)ccc2S(=O)(=O)N1C(C)C | – | inactive: -18.2%
55 | COc1ccc(-c2cccc(N3CCN(c4ccccn4)CC3)n2)cc1OC | – | inactive: 22.7%
56 | COc1ccc(-c2ccc(C(=O)NCc3cccs3)c3occc23)c(C)c1 | inconclusive: 25.1 µM [inhibitor, single point] | –
57 | Cc1ccc(NC(=O)CCC(=O)OCc2ccc(Br)cc2)cc1 | – | inactive: -6.11%
58 | COc1c(Cl)cc(C(=O)Nc2cc(-c3nc4ccccc4[nH]3)ccc2C)cc1Cl | inconclusive: 8.91 µM [inhibitor, partial curve, poor fit] | –
59 | CC(C)(C)NC(=O)c1ccc(Sc2ccccc2)c([N+](=O)[O-])c1 | inconclusive: 35.5 µM [inhibitor, single point] | –
60 | CC(=O)c1cccc(NC(=O)C(C)OC(=O)CCN=C2NS(=O)(=O)c3ccccc32)c1 (centres undefined) | – | inactive: 20.3%
61 | CCOC(=O)C(CC)(CCC(=O)O)c1csc(Nc2ccc(C)cc2)n1 (centres undefined) | inconclusive: 3.55 µM [inhibitor, partial curve, poor fit] | –
62 | CCOc1ccccc1N1CCN(C(=O)C2c3ccccc3Oc3ccccc32)CC1 | inconclusive: 35.5 µM [inhibitor, single point] | –
63 | CCOC(=O)C1(CCCc2ccccc2)CCN(C(=O)c2cnc(C)cn2)CC1 | – | inactive: -14.4%
64 | CCC(=NNC(=O)c1ccc2c(c1)nc(C)n2CC)c1cc(F)ccc1O | inconclusive: 8.91 µM [inhibitor, partial curve, poor fit] | –
65 | COc1ccc(/C=C/C(=O)Nc2ccc3nc4n(c(=O)c3c2)CCCC4)cc1OC | – | inactive: 8.93%
66 | CCN(C1CCCCC1)S(=O)(=O)c1ccc(S(=O)(=O)N(CC(=O)Nc2ccccc2)C2CC2)cc1 | – | inactive: -35.3%
67 | COc1ccc(NC(=S)N2CCCC2)cc1OC | inconclusive: 3.16 µM [inhibitor, partial curve, poor fit] | –
68 | CCN(C(=O)c1sc2cc(OC)ccc2c1Cl)c1ccccc1 | inconclusive: 22.4 µM [inhibitor, single point] | –
69 | Cc1ccc(NC(=O)CN2c3ccccc3S(=O)(=O)c3ccccc32)cc1F | inconclusive: 0.631 µM [inhibitor, partial curve, poor fit] | –
